In PubChem BioAssay (NCI):
Several values for one entry are separate records, joined by “and”; a condition that tells them apart may be missing. Equal entries are not always repeated.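 Compound exposure: 48 hours, 5 concentrations, 96-well plates. GI50 marks 50% less growth. At the TGI there is no net growth.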

Each molecule was assayed on NCI-H322M lung (assay: growth of human tumour cells (NCI), 48 h).
CC(=NNC(=S)Nc1ccccc1)c1cccc(C(C)=NNC(=S)Nc2ccccc2)n1 showed a TGI of over 31.1 µM.
Molecule CCCNc1ncnc2c1ncn2C has a TGI of over 100 µM.
COc1ccc(C(=O)Nc2ccc(O)c(=O)cc2)cc1 was tested, and the TGI was over 100 µM.
CNCCOC(=O)/C=C1\CC[C@H]2[C@@H]([C@@H](O)C(=O)[C@@H]3[C@]2(C)CC[C@H](O)[C@]3(C)C(=O)OC)[C@H]1C was tested, and the GI50 was 0.388 µM and the TGI was 1.85 µM.
Molecule CC1=CCC([C@@](C)(O)CCCC(C)(C)N=C=S)CC1 (some centres undefined) has a TGI of 32.7 µM.
With O=C1c2cc(-c3ccccc3)cnc2S(=O)(=O)N1c1ccc(Br)cc1 the TGI was over 100 µM.
For O=C(/C=C/c1ccccc1)Oc1ccc(C(=O)/C=C/c2ccccc2)cc1, the TGI was 26.1 µM.
Molecule Cc1nn(-c2ccccc2)c2c1C(c1cc3ccccc3nc1Cl)NC(=O)N2 (centres undefined) has a TGI of over 100 µM.
In the case of O=P(O)(O)C(N=C(Nc1ccccc1)Nc1ccccc1)P(=O)(O)O, the TGI was over 100 µM.
Work on CCOC(=O)Nc1cc2c(c(N)n1)N=C(c1ccccc1)CO2 yielded a GI50 of 0.537 µM and a TGI of 15.6 µM.
In the case of C=C1C(=O)CC2C1CC(=O)/C(C)=C/CCC(C)(O)C2O (centres undefined), the TGI was 75.1 µM.
With C/C(=N\N=C1/C(=O)OC(c2ccccc2)=C1C(=O)c1ccccc1)c1ccc([N+](=O)[O-])cc1 the TGI was over 100 µM.
O=C(/C=C/c1ccc[nH]1)c1ccc(-n2ccc(C(F)(F)F)n2)cc1 showed a GI50 of over 100 µM and a TGI of over 100 µM.
Cc1c(N(C)C)ccc2c(=O)c3cccc(CC(=O)O)c3oc12 showed a TGI of over 100 µM.
Cc1c(O)nc(-n2[nH]c3c(c2=O)CCCC3)[nH]c1=O gave a TGI of over 100 µM.
For NC(N)=N/N=C/c1c(Cl)cccc1Cl, the GI50 was 20.5 µM and the TGI was 63.4 µM.
NCCCN1c2ccccc2Sc2ccc(Cl)cc21 gave a TGI of over 10 µM.
With NC(N)=NCCCC(=O)O the TGI was over 100 µM.
For O=c1[nH][nH]c(=O)n1CCCCCCn1c(=O)[nH][nH]c1=O, the TGI was over 100 µM.
With N=c1c2c(-c3ccccc3)c(-c3ccccc3)n(Cc3ccccc3)c2ncn1C1CCC(O)CC1 (centres undefined) the GI50 was 0.352 µM and the TGI was 14.6 µM.
With COc1cnc2c(c1)C(=O)c1c-2n(CCCNC2=NCCS2)c(=O)c2cc([N+](=O)[O-])ccc12 the GI50 was 0.0427 µM and the TGI was 2.14 µM.
C[n+]1c(/C=C/c2c(O)ccc3ccccc23)ccc2ccccc21 showed a GI50 of 5.58 µM and a TGI of 12.6 µM.
With Cc1ccc(C)c(NC(=O)c2cccc([N+](=O)[O-])c2O)c1 the TGI was 74.3 µM.
Molecule CCCCCCCCCCCC[S+](C)C has a TGI of 27 µM.
Molecule CCN1CCN(c2cc(C)c3cc(NC(=O)c4ccc(OC)c(OC)c4)ccc3n2)CC1 has a GI50 of over 66.6 µM and a TGI of over 100 µM.
With C=CCCCCC1CCC2CCC(CCCCC=C)N12 (centres undefined) the TGI was 33.7 µM.
NC1CCN(Cc2ccccc2)CC1 showed a GI50 of over 100 µM and a TGI of over 100 µM.
Molecule C=C1CC(C#N)(C#N)[C@H]2C3CCCC3C[C@@H]12 (some centres undefined) (tested in a mixture with another compound) has a TGI of over 100 µM.
For CCC[CH2][Sn]([CH2]CCC)([O]C(=O)c1ccc(OC)c(OC)c1OC)[O][Sn]([CH2]CCC)([CH2]CCC)[O]C(=O)c1ccc(OC)c(OC)c1OC, the GI50 was 1.2 µM and the TGI was 2.44 µM.
For C=CCC1(c2ccc(OC)cc2)C=CC(=O)CC1 (centres undefined), the TGI was over 100 µM.
COc1cc2c(cc1OC)C(C(c1ccccc1)c1ccccc1)N(C)CC2 (centres undefined) was tested, and the TGI was over 100 µM.
CC1(C)COC(c2cccc3c2C(=O)c2cccc(Cl)c2-3)=N1 was tested, and the TGI was over 100 µM.
O=C(Nc1ccc(Br)cc1F)c1cc(Cl)ccc1O showed a GI50 of 0.418 µM and a TGI of over 26.6 µM.
In the case of COc1cc(C(=O)N2CCN(C(=O)c3cc(OC)c(OC)c(OC)c3)C2=S)cc(OC)c1OC, the GI50 was 17.4 µM and the TGI was 32.9 µM.
Work on S=c1[nH]c(=S)c2cc3ccccc3nc2[nH]1 yielded a GI50 of 76.6 µM and a TGI of over 100 µM.
BrC(=C(c1ccc(OC2CCCCO2)cc1)c1ccc(OC2CCCCO2)cc1)c1ccccc1 (centres undefined) gave a TGI of over 100 µM.
Cc1ccc2nc(/C(=C/c3ccc(/C=C(\NC(=O)c4ccccc4)c4nc5ccc(C)cc5[nH]4)c(C)c3)NC(=O)c3ccccc3)[nH]c2c1 showed a TGI of 86.9 µM.
C/C(CC(=O)Nc1ccc(C)c(C)c1)=N\N(c1ccccc1)c1ccccc1 was tested, and the TGI was over 100 µM.
With CC1(C)OC2C(CO[Si](C)(C)C(C)(C)C)OC(n3c(I)c(C#C[Si](C)(C)C)c(=O)[nH]c3=O)C2O1 (centres undefined) the GI50 was over 100 µM and the TGI was over 100 µM.
With CCOC(=O)N1CCC(N[C@@H]2c3cc4c(cc3C(c3cc(OC)c(O)c(OC)c3)C3C(=O)OC[C@@H]32)OCO4)CC1 (some centres undefined) the TGI was 50 µM and > 25 µM.
O=C(NCP(=O)(Oc1ccccc1)Oc1ccccc1)OCc1ccccc1 gave a TGI of over 100 µM.
In the case of CCOC(=O)c1c(-c2ccc(O)c(OC)c2)c(C#N)c(=S)n(C2OC(CO)C(O)C(O)C2O)c1-c1ccccc1 (centres undefined), the TGI was over 100 µM.
CCCCCC#CCOC(=O)C(=[N+]=[N-])P(=O)(c1ccccc1)c1ccccc1 showed a TGI of over 10 µM.
Work on O=C(O)[C@H]1CCCN1CP(=O)(O)CN1CCC[C@@H]1C(=O)O yielded a TGI of over 100 µM.
COc1ccc(-c2ccc(=O)oc2C#Cc2cc(OC)c(OC)c(OC)c2)cc1O gave a GI50 of 1.64 µM and a TGI of over 100 µM.
CC(c1ccccc1)N1CCN(C(C)c2ccccc2)CC1 (centres undefined) gave a TGI of over 100 µM.
Work on COc1cc(O)c2c(c1)C(=O)c1cc3c(c(O)c1C2=O)C(OC1OC(C)C(OC)C(O)C1OC)C(OC)C(C)(O)C3=O (centres undefined) yielded a TGI of over 100 µM.
Molecule Clc1cc2c(c(CSc3nc4ccccc4n4cccc34)c1)OCOC2 has a GI50 of over 100 µM and a TGI of over 100 µM.
For O=C(O)C(Cl)(Cl)Cl, the TGI was over 100 µM.
With CCOC(=O)c1cccc(N=Nc2nc[nH]c2/C=C/C(=O)OC)c1 the TGI was over 100 µM.
Molecule O=C1N=C2Sc3ccc4ccccc4c3N2C1=O has a TGI of 56.4 µM.
For CCNC(=S)NNC(=O)C12CC3CC(CC(C3)C1)C2, the TGI was over 100 µM.
C=CCc1cc(-c2nc(=S)[nH][nH]2)ccc1N=NNc1ccc(C(=O)O)cc1 gave a TGI of over 100 µM.
Work on O=C1NC(N2CCOCC2)=N/C1=C\c1ccco1 yielded a TGI of over 100 µM.
Molecule CC1CC2CCCC(O)=C2C(=O)O1 (centres undefined) has a TGI of over 100 µM.
In the case of Cc1nc(C)c(C(=O)NNC(=O)C[N+](C)(C)C)cc1C(=O)NNC(=O)C[N+](C)(C)C, the TGI was over 100 µM.
N#CC(C#N)=C1SC(=Nc2ccccc2)C(=Nc2ccccc2)N1c1ccccc1 showed a TGI of over 100 µM.
For CC(C)(/C=C(\C#N)C(=O)N1CCC[C@@H](n2nc(-c3ccc(Oc4ccccc4)cc3F)c3c(N)ncnc32)C1)N1CCN(C2COC2)CC1, the GI50 was 10.8 µM and the TGI was 22.9 µM.
COC(=O)c1c2c(c(C)[n+]([O-])c1C)C(=O)C=C(NCc1ccc(F)cc1)C2=O was tested, and the GI50 was 0.578 µM and the TGI was 2.27 µM.
In the case of CN(C)C(=S)/N=c1\sn(C)/c(=N\C(=S)N(C)C)n1C, the TGI was over 100 µM.
CCCCCCCCCCCCCCCC(=O)OCCOCCOCCOCc1ccccc1 showed a TGI of over 100 µM.
CCn1c(O)c(/C=N/NC(=O)C(C)c2ccc(CC(C)C)cc2)sc1=S (centres undefined) showed a GI50 of 0.608 µM and a TGI of over 47.5 µM.
With O=C1OC(C2Cc3ccc4ccccc4c3C2=O)c2ccccc21 (centres undefined) the TGI was 98.2 µM.
NC(=O)c1c(NC(=O)c2ccccc2)sc2c1CCC(=O)C2 showed a GI50 of 3.64 µM and a TGI of over 100 µM.
Work on Cc1cccc(C)c1NC(=O)C(Cc1c[nH]c2ccccc12)NC(=O)OCc1ccccc1 (centres undefined) yielded a TGI of 52 µM.
CSc1nc(SC)c2c(C#N)[nH]nc2n1 showed a TGI of over 100 µM.
With S=C1NC2=C(CSC/C2=C\c2cccc(Br)c2)C(c2cccc(Br)c2)N1 (centres undefined) the TGI was over 100 µM.
CC1=Cc2cccc(C)c2C(=O)C1=O gave a TGI of 56.1 µM.
Molecule COc1cccc(N2C(Cl)C(=O)C2c2c[nH]c3ccccc23)c1 (centres undefined) has a TGI of over 100 µM.
O=C(O)CN1CCN2CCCCCN(CC1)CCN(CC(=O)O)CC2 gave a TGI of over 100 µM.
Work on Cc1cc(/N=C/c2ccc(N(C)C)cc2)n(-c2ccccc2)n1 yielded a TGI of over 100 µM.
For COc1ccc(OCC(=O)O)c2c1CCCC2=O, the TGI was over 100 µM.
In the case of COc1cc2c(cc1OC)C1C3CCCCC3CCN1CC2 (centres undefined), the TGI was over 100 µM.
With Cc1ccc(/C=N\NC2c3cc(Cl)ccc3Nc3nc(=O)[nH]c(C)c32)cc1 (centres undefined) the TGI was over 100 µM.
In the case of CCN(CC)CCNc1nc(N)c(C#N)c(C#N)c1C#N, the TGI was over 10 µM.
In the case of NNC(=O)CNc1cccc(Br)c1, the TGI was over 100 µM.
For COc1ccc(C2OC(c3ccncc3)=NN2C)cc1F (centres undefined), the TGI was over 100 µM.
CC(=O)Nc1ccc(-c2csc(Nc3cccc(-c4csc(C)n4)c3)n2)cc1 was tested, and the GI50 was 0.33 µM and the TGI was 9.5 µM.
For O=C(CC1C(=O)Nc2ccccc2S1=O)Nc1cc(Cl)ccc1Cl (centres undefined), the TGI was over 100 µM.
Work on C=CCn1c(=O)c(C(=O)Nc2nc(C34CC5CC(CC(C5)C3)C4)cs2)c(O)c2ccccc21 yielded a TGI of over 100 µM.
CSC1=N/C(=C\c2ccc(C)cc2)C(=O)N1CN1CCCCC1 gave a TGI of over 100 µM.
N[C@@H](Cc1ccccc1)C(=O)N1CCC[C@@H]1P(=O)(Oc1ccccc1)Oc1ccccc1 showed a TGI of over 100 µM.
In the case of O=C(/C(=C/c1ccc(Cl)cc1)c1ccccc1)c1ccccc1, the TGI was 82.7 µM.
For CC(=O)NC1C(OCc2ccccc2)OC(CO)C(O)C1OCC(=O)N[C@@H](C)C(=O)N[C@H](CCC(=O)NCCCNc1c2ccccc2nc2cccc([N+](=O)[O-])c12)C(N)=O (some centres undefined), the TGI was 0.629 µM.
In the case of O=C1CCC(c2ccccc2)=NN1c1nsc2ccccc12, the TGI was over 100 µM.
N#C/C(=C\c1ccc2ccccc2c1)C(=O)c1ccccc1 gave a TGI of over 100 µM.
O=C1OCC/C1=N/O showed a TGI of over 100 µM.
Work on CCOc1cc(/C=C2/C(C)=NN(c3cccc(Cl)c3)/C2=N/c2nc3ccccc3s2)ccc1O yielded a TGI of over 100 µM.
On1c(-c2ccccc2)c(-c2ccccc2N2CCCC2)c2ccccc21 was tested, and the TGI was over 100 µM.
Cc1ccc(C2=CC(=O)OC(C[P+](c3ccccc3)(c3ccccc3)c3ccccc3)(c3ccccc3)O2)cc1 (centres undefined) showed a TGI of 31.8 µM.
CCC(C)(C)c1ccc(OCCCCNC(=O)c2ccc3ccccc3c2O)c(C(C)(C)CC)c1 gave a TGI of over 100 µM.
Molecule CC1(C)[C@@H]2CC[C@@]1(C)CN(CCC[N+](C)(C)C)C2 has a TGI of over 100 µM.
CCOc1ccc(/C=C2\N=C(c3ccc([N+](=O)[O-])cc3)OC2=O)cc1 gave a TGI of over 100 µM.
